# Part of at least one peptide drawing is inferred or uncertain, most often the ends. Where a SMILES comes first, the peptide text is derived from it. [ ]: non-standard residue; d: D form. The star is where a group is joined. Gly(Nα-4-Cl-benzyl) = O=C(O)CNCc1ccc(Cl)cc1; N(2-thienylmethyl)Gly = O=C(O)CNCc1cccs1; N(tridecyl)Gly = CCCCCCCCCCCCCNCC(=O)O; N(4-F-Bzl)Gly = O=C(O)CNCc1ccc(F)cc1; Gly(N-2-aminoethyl) = NCCNCC(=O)O; NFurfurylGly = O=C(O)CNCc1ccco1; Nspe = C[C@H](NCC(=O)O)c1ccccc1; X2 = CCCCCCCCN(CCCCCCCC)CC(=O)*; Gly(N-cHex) = O=C(O)CNC1CCCCC1; X1 = CCCCCCN(CCCCCC)CC(=O)*; Nphe = O=C(O)CNCc1ccccc1; Nlys = NCCCCNCC(=O)O
# Tested on: C. neoformans
# Assay: not given
# Assay type: cell-based, Cryptococcus neoformans
# Settings: Example 2; 72 hours at 35° C.
# Protocol: The minimum inhibitory concentration (MIC) of peptoids against fungal pathogens C. albicans and C. neoformans was determined following CLSI guidelines (CLSI. Reference method for broth dilution antifungal susceptibility testing of yeasts; approved standard-third edition; CLSI document M27-A3. (Clinical and Laboratory Standards Institute, 2008). […] This inoculant was diluted 1:100 into RPMI-MOPS and then further diluted 1:20 into RPMI-MOPS. 198 μL of inoculant was seeded into each well of a 96 well black-walled plate. 2-fold serial dilutions of 100× peptoid solutions were prepared in water and 2 μL of peptoid were added to each well in triplicate. […] MIC was defined as the lowest concentration of compound preventing fungal growth. This assay was repeated 3 times on separate days with each compound. […] The addition of 0.1 mL cell solution to 9.9 mL of RPMI-MOPS produced a 1:100 cell solution. After vortexing, 0.5 mL of the […] was added to 9.5 mL RPMI-MOPS to produce a 1:20 cell solution. 198 μL of the 1:20 solution was added to the wells of an opaque 96-well plate, apart from the wells designated for the medial control. […] Amphotericin B was used as a positive control, and sterile water was used for the vehicle control. The plates were incubated for 72 hours at 35° C. After incubation, the concentration of compound resulting in no visual growth was recorded as the MIC. […]
row,SMILES,C. neoformans MIC
1,CCCCCCN(CCCCCC)CC(=O)N(CC(=O)N(CCCCN)CC(=O)N(CCN)CC(=O)N(CC(N)=O)C1CCCCC1)C1CCCCC1 [Compound 6] (X1-[Gly(N-cHex)][Nlys][Gly(N-2-aminoethyl)][Gly(N-cHex)]-NH2),100 µg/mL

# Tested on: not listed separately
# Assay: Percent acetonitrile at elution during RP-HPLC purification (hydrophobicity)
# Assay type: physicochemical
# Settings: percent acetonitrile at the time of elution from HPLC
# From the text: All RMG8-8 derivatives were synthesized via the solid-phase submonomer synthesis method on polystyrene Rink Amide resin (Zuckermann et al. Journal of the American Chemical Society 114, 10646-10647 (1992)). The amines used during synthesis and the peptoid shorthand notations for each monomer are provided in Table 7 and Table 8, respectively. Compounds were purified to greater than 95% by RP-HPLC and compound identity was confirmed by ESI-TOF MS (Table 9). The calculated distribution coefficient at pH 7.4 (c Log D7.4) (via Chemaxon. MarvinSketch 19.17.0, 2019) and the percent acetonitrile at the time of elution during HPLC purification were recorded and serve as measures of hydrophobicity (Table 10). Higher values for c Log D7.4 and percent acetonitrile are indicators of increased compound hydrophobicity. With antimicrobial peptoids, hydrophobicity is directly related to both antimicrobial activity and cytotoxicity (Andreev et al. Biochimica et biophysica acta. Biomembranes 1860 6, 1414-1423 (2018); Bolt et al. Med chem comm 8, 886-896 (2017); Frederiksen et al. Molecules 24, (2019)). The ideal balance of these parameters generally must be determined experimentally. To measure antifungal activity, the minimum inhibitory concentration (MIC), defined as the concentration of compound required to inhibit 90% of fungal growth, was determined against C. neoformans using the broth microdilution method. Mammalian cytotoxicity was evaluated through a cell metabolic activity assay with HepG2 liver carcinoma cells, and select, potentially promising compounds were tested for unwanted hemolytic activity against human red blood cells.
# Peptoids were purified via Reversed-Phase High-Performance Liquid Chromatography (RP-HPLC) using a Varian Prepstar SD-1. A gradient of 0-100% water to acetonitrile containing 0.05% TFA made up the mobile phase, and a Supelco Ascentis C18 column (5 μm; 25 cm×21.2 mm; Sigma-Aldrich 581347-U) was used as the stationary phase. Peaks in the chromatogram above 0.1 AU were collected and analyzed via mass spectrometry. The peak product with the desired peptoid was dried down in vacuo and lyophilized overnight. Peptoids were then reconstituted in sterile […] deionized water to create compound stocks of 20 mg/mL.
row,SMILES,% ACN
1,CCCCCCCCCCCCCNCC(=O)N(CC(=O)N(CCCC[N+](C)(C)C)CC(=O)N(CC[N+](C)(C)C)CC(=O)N(CC(N)=O)C1CCCCC1)C1CCCCC1 [Compound 1],73.3%
2,CCCCCCCCCCCCCNCC(=O)N(CC(=O)N(CCCCN)CC(=O)N(CCCCN)CC(=O)N(CC(N)=O)C1CCCCC1)C1CCCCC1 [Compound 2] (H-[N(tridecyl)Gly][Gly(N-cHex)][Nlys][Nlys][Gly(N-cHex)]-NH2),67.4%
3,CCCCCCN(CCCCCC)CC(=O)N(CC(=O)N(CCCCN)CC(=O)N(CCN)CC(=O)N(CC(N)=O)C1CCCCC1)C1CCCCC1 [Compound 6] (X1-[Gly(N-cHex)][Nlys][Gly(N-2-aminoethyl)][Gly(N-cHex)]-NH2),64.5%
4,CCCCCCCCN(CCCCCCCC)CC(=O)N(CC(=O)N(CCCCN)CC(=O)N(CCN)CC(=O)N(CC(N)=O)C1CCCCC1)C1CCCCC1 [Compound 7] (X2-[Gly(N-cHex)][Nlys][Gly(N-2-aminoethyl)][Gly(N-cHex)]-NH2),69.3%
5,CCCCCCCCCCCCCNCC(=O)N(CC(=O)N(CCCCN)CC(=O)N(CCN)CC(=O)N(CC(N)=O)Cc1ccccc1)Cc1ccccc1 [Compound 15] (H-[N(tridecyl)Gly][Nphe][Nlys][Gly(N-2-aminoethyl)][Nphe]-NH2),66.9%

# Other lines, results leading:
row,% ACN,SMILES
1,66.7%,CCCCCCCCCCCCCNCC(=O)N(CC(=O)N(CCCCN)CC(=O)N(CCN)CC(=O)N(CC(N)=O)[C@@H](C)c1ccccc1)[C@@H](C)c1ccccc1 [Compound 16] (H-[N(tridecyl)Gly][Nspe][Nlys][Gly(N-2-aminoethyl)][Nspe]-NH2)
2,69.3%,CCCCCCCCCCCCCNCC(=O)N(CC(=O)N(CCCCN)CC(=O)N(CCN)CC(=O)N(CC(N)=O)Cc1ccc(F)cc1)Cc1ccc(F)cc1 [Compound 17] (H-[N(tridecyl)Gly][N(4-F-Bzl)Gly][Nlys][Gly(N-2-aminoethyl)][N(4-F-Bzl)Gly]-NH2)
3,71.1%,CCCCCCCCCCCCCNCC(=O)N(CC(=O)N(CCCCN)CC(=O)N(CCN)CC(=O)N(CC(N)=O)Cc1ccc(Cl)cc1)Cc1ccc(Cl)cc1 [Compound 18] (H-[N(tridecyl)Gly][Gly(Nα-4-Cl-benzyl)][Nlys][Gly(N-2-aminoethyl)][Gly(Nα-4-Cl-benzyl)]-NH2)
4,71.1%,CCCCCCCCCCCCCNCC(=O)N(CC(=O)N(CCCCN)CC(=O)N(CCN)CC(=O)N(CC(N)=O)c1cccc2ccccc12)c1cccc2ccccc12 [Compound 21]
5,67.6%,CCCCCCCCCCCCCNCC(=O)N(CC(=O)N(CCCCN)CC(=O)N(CCN)CC(=O)N(CC(N)=O)Cc1ccco1)Cc1ccco1 [Compound 24] (H-[N(tridecyl)Gly][NFurfurylGly][Nlys][Gly(N-2-aminoethyl)][NFurfurylGly]-NH2)
6,68.3%,CCCCCCCCCCCCCNCC(=O)N(CC(=O)N(CCCCN)CC(=O)N(CCN)CC(=O)N(CC(N)=O)Cc1cccs1)Cc1cccs1 [Compound 25] (H-[N(tridecyl)Gly][N(2-thienylmethyl)Gly][Nlys][Gly(N-2-aminoethyl)][N(2-thienylmethyl)Gly]-NH2)

# Source: patent US20240352066A1, “ANTIMICROBIAL COMPOUNDS AND THE METHOD OF USE” (priority 2021, published 2024)
